Measurements taken from patent publication US9724435B2 (The University of Mississippi, priority 2007, dated 2017).

How the values were obtained:
σ-1 receptor = σ-1 receptor (Homo sapiens (Human), UniProt Q99720); experiment: Cell uptake in CHO cells transfected with σ-1 receptor cDNA; format: cell-based; settings: 120 min
[1] = system: cocaine-induced locomotor activity; experiment: Cocaine-induced locomotor activity; format: in vivo, mice; settings: pretreatment i.p. 15 min before cocaine 20 mg/kg i.p.
[2] = system: cocaine-induced convulsions; experiment: Cocaine-induced convulsions
[3] = system: methamphetamine-induced locomotor activity; experiment: Methamphetamine-induced locomotor activity; format: in vivo, mice; settings: pretreatment i.p. 15 min before methamphetamine 1 mg/kg i.p.
[4] = molecular target: norepinephrine transporters (Rattus norvegicus, UniProt Q63380); experiment: Non-σ competition binding, [3H]nisoxetine; settings: rat brain homogenates; read-out: NET Ki
[5] = system: cocaine-induced sensitization; experiment: Expression of cocaine-induced sensitization; format: in vivo, mice; settings: pretreatment on Day 15 before cocaine 10 mg/kg i.p.
striatal dopamine levels = experiment: Methamphetamine-induced dopamine depletions; format: in vivo, mice; settings: methamphetamine 5 mg/kg x4 at 2 hr intervals
σ-1 = σ-1 (Rattus norvegicus (Rat), UniProt Q9R0C9); experiment: σ-1 binding in rat brain homogenates, [3H](+)-pentazocine; settings: read-out: σ-1 (Ki)
Chain of UniProt Q9R0C9 (Q9R0C9 whole entry): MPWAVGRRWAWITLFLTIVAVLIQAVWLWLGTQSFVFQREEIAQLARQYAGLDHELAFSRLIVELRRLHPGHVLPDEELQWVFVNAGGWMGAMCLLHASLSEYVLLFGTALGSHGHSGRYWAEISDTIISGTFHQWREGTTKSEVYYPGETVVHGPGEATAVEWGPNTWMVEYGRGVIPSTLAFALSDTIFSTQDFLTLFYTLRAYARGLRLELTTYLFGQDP

σ-2 = σ-2 (Rattus norvegicus (Rat), UniProt Q5U3Y7); experiment: σ-2 binding in rat brain homogenates, [3H]DTG plus (+)-pentazocine; settings: for σ-1/σ-2: ratio of Ki values; for Ki: read-out: σ-2 (Ki), rat brain homogenates
Chain of UniProt Q5U3Y7 (Q5U3Y7 whole entry): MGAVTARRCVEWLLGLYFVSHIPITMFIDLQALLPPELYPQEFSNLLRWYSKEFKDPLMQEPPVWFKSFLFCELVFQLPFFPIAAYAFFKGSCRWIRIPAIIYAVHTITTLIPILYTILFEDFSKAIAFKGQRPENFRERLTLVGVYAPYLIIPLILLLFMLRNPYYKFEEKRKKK

[6] = system: cocaine-induced sensitization; experiment: Development of cocaine-induced sensitization; format: in vivo, mice; settings: pretreatment Days 1-5, cocaine 10 mg/kg i.p., test Day 15
Experimental: Male, Swiss Webster mice were acclimated as detailed above. […] The total locomotor activity (ambulatory, fine and rearing movements) of the mice was recorded for the next 30 min as the number of disruptions made by them in the 16×16 photobeam grids of their testing chamber on each of the five days. A 10 day drug-free period followed. On Day 15, all of the mice were pre-administered (i.p.) saline followed by cocaine (10 mg/kg, i.p.), and locomotor activity quantified for the next 30 min.

[7] = Stability of formulated radioligand by analytical HPLC; format: physicochemical; settings: saline/ethanol (9:1), analytical reverse-phase HPLC
Text: The design strategy for generating [^18F]

[8] = Small-animal PET imaging of mouse brain; settings: Balb C, intravenous
[9] = pretreatment i.p. 15 min before cocaine 70 mg/kg i.p.

Chain of UniProt Q99720 (Q99720 whole entry): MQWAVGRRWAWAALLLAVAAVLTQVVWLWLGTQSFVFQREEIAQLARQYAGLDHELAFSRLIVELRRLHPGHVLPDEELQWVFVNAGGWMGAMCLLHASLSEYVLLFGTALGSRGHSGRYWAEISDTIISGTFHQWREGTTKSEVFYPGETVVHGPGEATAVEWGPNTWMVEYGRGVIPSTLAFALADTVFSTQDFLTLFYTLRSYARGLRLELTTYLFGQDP

SMILES: CC(C)=CCN1CC[C@]2(C)c3cc(O)ccc3C[C@H]1[C@H]2C [(+)-[^3H] pentazocine, reference compound]
- uptake in σ-1 receptor cDNA transfected CHO cells vs control CHO cells (σ-1 receptor): 3.6 fold

SMILES: S=c1sc2ccccc2n1CCCCN1CCN(C2CCCCC2)CC1 [CM156]
- cocaine-induced locomotor activity [1]: significant attenuation
- cocaine-induced convulsions [2, 9]: significant attenuation
- methamphetamine-induced locomotor activity [3]: attenuated
- Ki [4]: > 10000 nM
- expression of cocaine-induced sensitization [5]: attenuates
- neurotoxic effects of methamphetamine (dopamine depletions) (striatal dopamine levels): attenuated

SMILES: Cl.O=c1sc2cc(CCCF)ccc2n1CCN1CCCCCC1 [CM304, 3-(2-(azepan-1-yl)ethyl)-6-(3-fluoropropyl)benzo[d]thiazol-2(3H)-one hydrochloride]
- cocaine-induced convulsions ([2]; 0.001-10 mg/kg i.p. 15 min before cocaine 70 mg/kg i.p.): significantly attenuated

SMILES: CC(=O)c1ccc2c(c1)oc(=O)n2CCCCN1CCN(c2ccc(F)cc2[N+](=O)[O-])CC1 [CM592]
- Ki (σ-1): 369 ± 14.2 nM

SMILES: Cn1c(=O)n(CCCCN2CCN(c3ccc(F)cc3N)CC2)c2ccccc21 [CM599]
- Ki (σ-1): 216 ± 11.8 nM

SMILES: O=c1[nH]c2ccccc2n1CCCCN1CCN(c2ccc(F)cc2)CC1 [CM728]
- Ki (σ-1): 1862 ± 11.8 nM

SMILES: O=c1oc2ccccc2n1CCCCN1CCN(C2CCCCC2)CC1 [CM 121]
- σ-1/σ-2 (σ-2): 6.2

SMILES: O=c1oc2ccccc2n1CCCCCN1CCN(C2CCCCC2)CC1 [CM 126]
- σ-1/σ-2 (σ-2): 1.8

SMILES: CN1CCN(CCCCn2c(=O)oc3ccccc32)CC1 [CM 160]
- Ki (σ-1): 91.7 ± 11.5 nM

SMILES: CCc1ccc2oc(=O)n(CCCCN3CCN(C4CCCCC4)CC3)c2c1 [CM 174]
- Ki (σ-2): 58.2 ± 11.5 nM

SMILES: O=c1oc2ccccc2n1CCN1CCN(CCc2ccccc2)CC1 [CM 176]
- Ki (σ-2): 21.7 ± 2.79 nM

SMILES: Fc1ccc(N2CCN(CCCCn3ccc4ccccc43)CC2)cc1 [CM 338]
- Ki (σ-1): 170 ± 5.68 nM

SMILES: CC(=O)c1ccc2oc(=O)n(CCCCN3CCN(c4ccc(F)cc4)CC3)c2c1 [CM 356]
- Ki (σ-2): 1.21 ± 0.2 nM
- Ki (σ-1): 27.8 ± 4.14 nM

SMILES: O=c1oc2ccccc2n1CCCCN1CCN(c2ccccc2F)CC1 [CM 362]
- Ki (σ-1): 17.6 ± 3.34 nM

SMILES: O=c1oc2ccc(-c3ccc(F)cc3)cc2n1CCCCN1CCN(C2CCCCC2)CC1 [CM 366]
- Ki (σ-2): 0.0061 ± 0.00096 nM
- Ki (σ-1): 22.6 ± 1.14 nM

SMILES: O=c1oc2ccccc2n1CCCCCCN1CCN(C2CCCCC2)CC1 [SN-48]
- σ-1/σ-2 (σ-2): 1.5

SMILES: CCCCCCCc1ccc2c(c1)sc(=O)n2CCCCN1CCN(C2CCCCC2)CC1 [SN-57]
- Ki (σ-2): 29.3 nM
- Ki (σ-1): 43.8 nM

SMILES: O=C(c1ccccc1)c1ccc2c(c1)sc(=O)n2CCN1CCCCCC1 [SN-78]
- Ki (σ-2): 860 nM
- Ki (σ-1): 88.3 nM

SMILES: CC(=O)c1ccc2c(c1)oc(=O)n2CCCCN1CCN(c2ccc(F)cc2)CC1.Cl.Cl [SN-79]
- cocaine-induced locomotor activity [1]: significant attenuation
- cocaine-induced convulsions [2, 9]: significant attenuation
- development of cocaine-induced sensitization [6]: attenuates
- expression of cocaine-induced sensitization [5]: attenuates

SMILES: Cl.Cl.O=c1sc2ccccc2n1CCCCCCN1CCN(C2CCCCC2)CC1 [SN-102]
- σ-1/σ-2 (σ-2): 4.40

SMILES: Nc1ccc2c(c1)oc(=O)n2CCCCN1CCN(c2ccc(F)cc2)CC1 [SN-228]
- Ki (σ-2): 177 ± 10.2 nM

SMILES: O=c1sc2cc(CCC[18F])ccc2n1CCN1CCCCCC1 [[^18F]FTC-146, 6-(3-fluoropropyl)-3-(2-(azapan-1-yl)ethyl)benzo[d]thiazol-2(3H)-one]
- uptake in σ-1 receptor cDNA transfected CHO cells vs control CHO cells (σ-1 receptor): 4 fold
- stability of formulated version [7]: at least 5.5 hours
- tissue uptake at 60 min [8]: 6 %ID/g
